Measured values: PubChem BioAssay AID1030 (National Center for Advancing Translational Sciences (NCATS), 2008)
Values joined by “and” are separate entries in the source; they are usually repeats but may differ in a detail not shown here. Equal entries are not always repeated. Screen size: about 220,000 compounds; about 16,000 (7.3%) were called active. Inconclusive results, whose numbers are uncertain, are shown with a selection of clear calls. The call rests on the fitted dose curve; in most records, active means well fitted inhibition curve with a large enough effect (not every such curve was filed as active); inconclusive means small, poorly fitted or top-dose-only effect, or another doubt; inactive means no such curve, though single readings can be large or run the other way. Where the call is inconclusive, the potency comes from a doubtful curve fit.

biological target: Aldehyde dehydrogenase 1A1 (Homo sapiens) (UniProt P00352); assay: qHTS Assay for Inhibitors of Aldehyde Dehydrogenase 1 (ALDH1A1); details: Purified ALDH1A1, NADH fluorescence, propionaldehyde substrate; series mostly up to 75.3 µM; activity, negative = inhibition: at the top concentration;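 on activity, negative = inhibition: plate controls were no enzyme wells and a reference inhibitor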
Potency means the concentration at half of the fitted maximal effect; tags describe the fitted curve by direction and shape.

Chain of UniProt P00352 (P00352 whole entry, looked up): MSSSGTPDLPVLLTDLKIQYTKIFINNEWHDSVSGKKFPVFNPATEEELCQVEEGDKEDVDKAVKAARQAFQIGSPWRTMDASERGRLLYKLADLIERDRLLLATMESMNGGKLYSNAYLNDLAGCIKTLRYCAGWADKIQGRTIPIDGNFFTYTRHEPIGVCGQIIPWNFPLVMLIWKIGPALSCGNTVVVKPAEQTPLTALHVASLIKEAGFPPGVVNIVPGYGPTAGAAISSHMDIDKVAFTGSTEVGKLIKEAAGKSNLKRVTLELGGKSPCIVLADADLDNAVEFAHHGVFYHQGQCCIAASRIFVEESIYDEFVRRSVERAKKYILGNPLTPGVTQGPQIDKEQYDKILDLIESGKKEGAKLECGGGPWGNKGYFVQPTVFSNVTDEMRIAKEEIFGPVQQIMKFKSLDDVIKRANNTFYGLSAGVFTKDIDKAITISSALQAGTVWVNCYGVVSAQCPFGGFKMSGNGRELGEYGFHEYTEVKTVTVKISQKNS

| SMILES | Potency | activity, negative = inhibition |
| --- | --- | --- |
| Cc1ccc(C(NC(=O)N2CCOCC2)=C(Cl)Cl)cc1F | active: 0.112 µM |  |
| COCCn1c(-c2ccco2)csc1=Nc1cccnc1 | inconclusive: 28.2 µM [inhibitor, single point] |  |
| CC(=O)OC[C@H]1O[C@@H](O/N=C(\C)CCN2CCc3nc(-c4ccccc4)c(-c4ccccc4)cc3C2)[C@H](OC(C)=O)[C@@H](OC(C)=O)[C@H]1OC(C)=O |  | inactive: -1.34% [at 13.5 µM] |
| COc1ccc(NC(=S)N(Cc2ccc(C(=O)O)cc2)Cc2ccc(OC)c(OC)c2)cc1 | inconclusive: 39.8 µM [inhibitor, single point] |  |
| COCCN(Cc1ccccc1)C(=S)Nc1ccc(Cl)cc1 |  | inactive: 0.291% |
| COc1ccc(/C=N/N2C(=O)C3C4C=CC(C4)C3C2=O)cc1[N+](=O)[O-] (configuration not stated) | inconclusive: 3.98 µM [inhibitor, full curve] |  |
| CC(C)N1C(=O)S/C(=C/c2ccccc2OCc2ccc(C(=O)O)cc2)C1=O | inconclusive: 14.1 µM [inhibitor, partial curve] |  |
| Nc1ncnc2c1ncn2[C@H]1O[C@@H](C(=O)OCCO)[C@@H](O)[C@H]1O |  | inactive: 11.3% [at 13.5 µM] |
| Cc1ccc(C)c(OCc2nc3ccccc3[nH]2)c1 |  | inactive: 7.78% |
| Cc1cc(N)n2ncc(-c3ccccc3)c2n1 | inconclusive: 28.2 µM [inhibitor, single point] |  |
| COC(=O)c1ccc(C(=O)OC)c(NC(=O)CS(=O)(=O)Cc2ccccc2)c1 | inconclusive: 31.6 µM [inhibitor, single point] |  |
| CCN1C(=O)N[C@@H](c2ccc(Br)cc2)C(C(C)=O)=C1C |  | inactive: 12.1% [at 13.5 µM] |
| CC(=O)c1ccc(N2CCN(C(=O)Nc3ccc(C(C)C)cc3)CC2)cc1 | inconclusive: 17.8 µM [inhibitor, partial curve] |  |
| CCCC(C)c1nnc(NC(=O)c2cc(C(=O)OC)cc([N+](=O)[O-])c2)s1 (configuration not stated) | active: 7.94 µM |  |
| CCN(CC)N=Nc1[nH]nc2nc(C)cc(C)c12 | inconclusive: 39.8 µM [inhibitor, single point] |  |
| Cc1ccc2oc(=O)c3cnn(CC(=O)N(Cc4ccco4)C4CCCCC4)c3c2c1 | inconclusive: 39.8 µM [inhibitor, single point] |  |
| CC(C)(C)n1nnnc1C(c1cccc(C#N)c1)N1CCCCCC1 (configuration not stated) | inconclusive: 35.5 µM [inhibitor, single point] |  |
| CCN(CC)c1ccc(/C=N/NC(=S)NCc2ccco2)cc1 | inconclusive: 31.6 µM [inhibitor, single point] |  |
| Cn1c(SCC(=O)NC(c2ccccc2)c2ccccc2)nnc1-c1cccs1 |  | inactive: -3.59% |
| CNc1ccc(Br)cc(C(=O)/C=C/c2cccc(OC)c2OC)c1=O | active: 15.8 µM |  |
| CC(=O)OCc1ccco1 | active: 22.4 µM |  |
| CC1(C)Cc2nc3sc4c(=O)n(CC(=O)NCc5ccccc5)cnc4c3cc2CO1 | inconclusive: 22.4 µM [inhibitor, partial curve] |  |
| CC(=O)Nc1ccc(NC(=O)COC(=O)Cc2c[nH]c3ccccc23)cc1 | active: 14.1 µM |  |

| SMILES | Potency | activity, negative = inhibition |
| --- | --- | --- |
| Cc1cc(C(=O)CSc2nncn2C)c(C)n1-c1ccccc1 |  | inactive: 10.4% |
| O=C1c2ccccc2C(Nc2ccccc2)N1c1ccc(Cl)cn1 (configuration not stated) | inconclusive: 22.4 µM [inhibitor, partial curve] |  |
| O=C(c1cc([N+](=O)[O-])cc([N+](=O)[O-])c1)N1CCN(Cc2ccc3c(c2)OCO3)CC1 | inconclusive: 39.8 µM [inhibitor, single point] |  |
| CCC(=O)N1c2ccc(S(=O)(=O)CCC(=O)N3CCN(c4ccccc4)CC3)cc2CC1C (configuration not stated) | inconclusive: 39.8 µM [inhibitor, single point] |  |
| CCc1cc2c(cc3c(=O)n(CC(=O)N4CCN(c5ccccn5)CC4)nc(CC)n32)s1 | inconclusive: 31.6 µM [inhibitor, partial curve] |  |
| Cc1ccc(C)n1CCN1CCN(CC(=O)Nc2cc(C(F)(F)F)ccc2Cl)CC1 | active: 28.2 µM |  |
| CCN(CC)S(=O)(=O)c1ccc2c(c1)nc(SCC(=O)N1CCOCC1)n2-c1ccccc1OC |  | inactive: 9.5% |
| COc1cc(C=Nc2c(C)cc(C)cc2C)ccc1OC(C)=O | inconclusive: 1.78 µM [inhibitor, full curve, poor fit] |  |
| CC[C@@H](C)CN1C(=O)N[C@@H](c2ccccc2)C(C(C)=O)=C1C |  | inactive: -0.743% [at 13.5 µM] |
| CCn1cc(C(=O)NCCCN2CC(C)CC(C)C2)c(=O)c2cc(S(=O)(=O)N(C)C)ccc21 (configuration not stated) | inconclusive: 22.4 µM [inhibitor, partial curve] |  |
| O=C(Nc1cccc2oc(=O)ccc12)c1ccc([N+](=O)[O-])cc1[N+](=O)[O-] | active: 7.94 µM |  |
| COc1cc(C2NC(=O)C(C#N)=C(Nc3cccc(C)c3)S2)ccc1O (configuration not stated) | inconclusive: 10 µM [inhibitor, partial curve] and inconclusive: 39.8 µM [inhibitor, single point] |  |
| CC(=O)c1ccc(-n2c(-c3cc(-c4ccco4)[nH]n3)n[nH]c2=S)cc1 |  | inactive: -8.82% |
| CCCCN=C1C([N+](=O)[O-])=CC=C2C1=NC1(CCCCC1)N2O | active: 1.41 µM |  |
| COc1ccc(/C(O)=C/Sc2nnc(Cc3ccccc3)o2)cc1 | inconclusive: 12.6 µM [inhibitor, partial curve] |  |
| CCc1nnc(NS(=O)(=O)c2ccc(N=Cc3c(C)[nH]n(-c4ccc(C)c(C)c4)c3=O)cc2)s1 | active: 11.2 µM |  |
| CN1CCN(c2ncc3nc(CCc4ccccc4)c(=O)n(Cc4cccs4)c3n2)CC1 | inconclusive: 10 µM [inhibitor, partial curve] |  |
| O=C(NCC1CCCO1)c1ccc2c(=O)n(Cc3ccco3)c(SCC(=O)N3CCCC3)nc2c1 (configuration not stated) | inconclusive: 20 µM [inhibitor, partial curve] |  |
| COc1cccc(C(=O)Nc2ncc3c(n2)CC(C)CC3=O)c1 (configuration not stated) | inconclusive: 25.1 µM [inhibitor, single point] |  |
| CCC(C)(C)NC(=O)CN(C(=O)CNS(=O)(=O)c1ccc(C)cc1)c1ccc2c(c1)OCCO2 | inconclusive: 22.4 µM [inhibitor, single point] |  |
| COc1ccccc1Nc1nc(N)nc(CN(C)C2CCCCC2)n1 | inconclusive: 39.8 µM [inhibitor, single point] |  |
| COc1ccc(CCc2nnc(CCC(=O)NCc3cnn(-c4ccccc4C)c3)o2)cc1 |  | inactive: -13.3% |
| CCOC(=O)c1ccccc1NC(=O)C(C)Oc1ccccc1 (configuration not stated) | inconclusive: 7.08 µM [inhibitor, single point] |  |

| SMILES | Potency | activity, negative = inhibition |
| --- | --- | --- |
| CN1CCN(S(=O)(=O)c2cccc(C(=O)Nc3ccccc3N3CCOCC3)c2)CC1 |  | inactive: 9.35% |
| CN(C)Cc1c(-c2ccc(Cl)cc2)nc2ccc(Cl)cn12 | inconclusive: 39.8 µM [inhibitor, single point] |  |
| O=S(=O)(Oc1ccccc1/C=N/n1cnnc1)c1ccccc1 | active: 22.4 µM |  |
| O=C(CN(C(=O)Cn1nnc(-c2cccs2)n1)c1ccc2c(c1)OCCO2)NCc1ccccc1 | inconclusive: 39.8 µM [inhibitor, single point] |  |
| Cc1ccc(C2C3CSCC=C3C(C#N)=C(N)C2(C#N)C#N)cc1 (configuration not stated) | active: 8.91 µM |  |
| COc1ccc(-c2nc3c(n2O)CCCC3=O)cc1OC | inconclusive: 39.8 µM [inhibitor, single point] |  |
| CCCCNC(=O)CCC(=O)Nc1ccc2nc(N3CCCCC3)cc(C)c2c1 | inconclusive: 28.2 µM [inhibitor, partial curve] |  |
| O=C(NCc1ccc2c(c1)OCO2)c1cccc(S(=O)(=O)N2CCCCC2)c1 | inconclusive: 17.8 µM [inhibitor, partial curve] |  |
| COc1ccc2c(c1)O[C@@H](c1cccc(C(F)(F)F)c1)[C@H](OC(=O)NCCc1ccc(OC)c(OC)c1)C2=O | inactive |  |
| O=C(Nc1nccc(-c2cccs2)n1)c1cccs1 | inconclusive: 44.7 µM [inhibitor, single point] |  |
| C[C@](N)(Cc1ccc(O)cc1)C(=O)O | inactive |  |
| COc1ccccc1-c1nnc(NC(=O)CSc2nncn2C)s1 | inconclusive: 22.4 µM [inhibitor, single point] |  |
| Cc1sc2nc(CN3CCCC3)nc(Cl)c2c1C | inconclusive: 22.4 µM [inhibitor, partial curve] |  |
| COc1cc2c(cc1OC)[C@@H]1CC(=O)[C@@H](CC(C)C)CN1CC2 | inconclusive: 28.2 µM [inhibitor, single point] |  |
| O=C(/C=C/c1cccc([N+](=O)[O-])c1)NC1CC2CCC1C2 (configuration not stated) | inconclusive: 28.2 µM [inhibitor, partial curve] |  |
| CCSC1=N/C(=C\c2cccnc2)C(=O)N1c1ccccc1 | inconclusive: 28.2 µM [inhibitor, partial curve] |  |
| COc1ccccc1C(=O)C1Nc2ccccc2-c2nnc(SC)nc2O1 (configuration not stated) | active: 22.4 µM |  |
| COc1ccc(Oc2ccc(N/C=C3/CCCC3=O)cc2)cc1 | inconclusive: 12.6 µM [inhibitor, partial curve] |  |
| O=C1C/C(=C/NCc2ccccc2)C(=O)N1 | inconclusive: 25.1 µM [inhibitor, single point] |  |
| Cc1c(O)c(=O)c2ccccc2n1C | inconclusive: 22.4 µM [inhibitor, partial curve] and inconclusive: 3.16 µM [inhibitor, partial curve] |  |
| Fc1ccccc1OCCCCCCN1CCCC1 | inconclusive: 39.8 µM [inhibitor, single point] |  |
